# PubChem BioAssay AID488969 (Vanderbilt High Throughput Screening Facility, 2010)
# Whole data set: some 110,000 compounds, median “z-score” near -0.1, cut for the highest 2% near 2. This is one part of the list. Calls of active or inactive are those of the source.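 The calls were made as follows: active = z-score in the third read window above 3 or below -3; inactive = the rest.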
# Biological target: Metabotropic glutamate receptor 8 (Rattus norvegicus) (UniProt P70579)
# Assay: rat mGluR8 modulators via GIRK flux, primary screen, cell-based, thallium flux, HTS (AID 488969)
# Conditions: HEK293 rat mGluR8, GIRK (G protein-gated inwardly rectifying potassium channel) thallium flux, FluoZin2; at 10 µM; stronger effect = higher value; submaximal glutamate (EC20) added with thallium
# UniProt P70579, sequence (P70579 whole entry, looked up): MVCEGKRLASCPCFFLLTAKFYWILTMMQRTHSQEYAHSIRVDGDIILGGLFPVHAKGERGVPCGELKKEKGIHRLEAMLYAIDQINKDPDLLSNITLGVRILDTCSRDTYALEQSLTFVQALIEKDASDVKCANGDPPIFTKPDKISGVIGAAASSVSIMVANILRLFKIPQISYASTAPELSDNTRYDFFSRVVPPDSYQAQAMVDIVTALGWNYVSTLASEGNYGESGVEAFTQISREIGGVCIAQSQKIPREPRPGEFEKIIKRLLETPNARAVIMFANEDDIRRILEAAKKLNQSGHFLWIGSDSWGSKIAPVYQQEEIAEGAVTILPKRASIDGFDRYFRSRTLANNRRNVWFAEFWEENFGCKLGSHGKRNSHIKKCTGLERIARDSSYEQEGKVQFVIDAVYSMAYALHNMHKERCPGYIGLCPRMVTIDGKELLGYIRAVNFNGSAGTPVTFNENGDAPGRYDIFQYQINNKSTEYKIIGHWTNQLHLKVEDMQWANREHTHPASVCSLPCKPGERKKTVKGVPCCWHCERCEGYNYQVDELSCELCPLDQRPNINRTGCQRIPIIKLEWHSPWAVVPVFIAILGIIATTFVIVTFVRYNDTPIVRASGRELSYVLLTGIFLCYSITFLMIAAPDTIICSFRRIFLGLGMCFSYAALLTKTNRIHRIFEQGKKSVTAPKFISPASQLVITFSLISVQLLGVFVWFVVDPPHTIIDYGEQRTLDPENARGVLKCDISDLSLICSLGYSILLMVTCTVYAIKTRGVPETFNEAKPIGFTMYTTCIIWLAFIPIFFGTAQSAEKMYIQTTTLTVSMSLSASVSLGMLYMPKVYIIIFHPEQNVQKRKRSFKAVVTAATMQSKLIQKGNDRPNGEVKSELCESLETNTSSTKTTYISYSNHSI
row,Structure (SMILES),z-score
1,CCCCCn1c(=O)[nH]c2cc(C(=O)NCCc3ccc(OC)c(OC)c3)ccc2c1=O,0.552
2,COC(=O)C(C(=O)OC)C(C[N+](=O)[O-])c1ccc(O)c(OC)c1 (centres undefined),-0.172
3,O=C(O)c1cnn2c(C(F)F)cc(C(F)F)nc12,-0.0339
4,COc1ccc2[nH]c(C)c(CCN(Cc3cccs3)C(=S)Nc3cccc(F)c3)c2c1,1.63
5,CCc1cn(S(=O)(=O)c2ccccc2OC)nc1N,-0.998
6,COc1cccc(C(=O)N/N=C(\CC(C)C)c2ccccc2)c1,1.93
7,O=c1c(Cl)c(N2CCN(c3ccc(F)cc3)CC2)cnn1-c1nc2ccccc2s1,-0.0847
8,CN(C)CCNC(=O)c1ccc2c(c1)N(Cc1ccc(F)cc1)CCS2,1.85
9,O=C(CSc1nc2ccccc2[nH]1)Nc1ccc2c(c1)OCCO2,-0.394
10,N#Cc1cnn(-c2ncnc3sc(-c4ccccc4)cc23)c1N,-0.198
11,CC1(C)CC(=O)c2sc(NC(=O)CN3CCOCC3)nc2C1,0.431
12,Cc1ccc(CNC(=S)Nc2ccc(OC(F)F)cc2C)cc1,-0.531
13,O=C(Nc1ccccc1)C(Cc1ccccc1)NC(=O)C12CC3CC(CC(C3)C1)C2 (centres undefined),0.0454
14,CCCn1nc([N+](=O)[O-])c(C(C#N)c2nc3ccccc3s2)c(Cl)c1=O (centres undefined),-2.49
15,COc1ccc2c(c1OC)C(=O)N1c3ccccc3C(=O)N(c3ccccc3)C21 (centres undefined),-0.451
16,CCN1C(=O)CC(C(=O)Nc2ccc(F)cc2)SC1=Nc1cccc(OC)c1 (centres undefined),-0.764
17,COC(=O)CCC(=O)Nc1ccc(C)cc1OC(=O)CCC(=O)OC,0.273
18,COc1cc(/C=N/NC(=O)c2nc(C)cc(C)n2)ccc1O,-0.127
19,Cc1cc(C)n(-c2ccc(C(=O)Nc3cc(S(=O)(=O)N(C)C)ccc3Cl)cc2)n1,-0.372
20,CC1CCCC2(C1)NC(=S)c1c(sc3c1CCCC3)N2 (centres undefined),1.1
21,Cc1cc(C)c(OCCCCCNCCO)c(C)c1,1.43
22,CN(CC(=O)Nc1ccccc1Br)Cc1nc2ccccc2c(=O)[nH]1,0.733
23,O=C(CN1CCN(S(=O)(=O)c2ccccc2)CC1)Nc1ccccc1C(=O)c1ccccc1,-0.342

row,Structure (SMILES),z-score
1,O=C(NCCC1=CCCCC1)C1CCCN(c2nc3ccccc3o2)C1 (centres undefined),-1.1
2,COc1ccc(/C=N/NC(=O)C(=O)N2CCCC2)cc1OC,-0.402
3,Cc1ccc(NC(=O)N2CCOCC2)c(C)c1,0.386
4,CCn1c(=O)n(CC(=O)N(C)Cc2ccccc2)c(=O)c2ccccc21,-0.456
5,CCCc1cc(C(=O)N(C2CCCCC2)C2CCCCC2)no1,0.314
6,O=C(COC(=O)c1cnccn1)c1ccc(OC(=O)c2ccccc2)cc1,0.111
7,CC1=CC(C)(C)N2C(=O)C3(C(C#N)=C(N)Oc4cc(C)oc(=O)c43)c3cc(C)cc1c32 (centres undefined),-0.282
8,CCn1c(=N)n(CCOc2ccc(OC)cc2)c2ccccc21,-0.158
9,CCOc1nc(N2CCOCC2)nc(C)c1[N+](=O)[O-],-0.604
10,NC(=O)c1ccccc1N/C=C/C(=O)c1cccs1,-0.0149
11,COc1ccc(N2CCN(C(CNS(=O)(=O)c3cc(F)ccc3F)c3cccnc3)CC2)cc1 (centres undefined),-0.0134
12,CCC(=O)Nc1ccc(C(=O)CSc2nnc(-c3ccccc3F)n2CCc2ccccc2)cc1,-1.08
13,O=C(NC(=S)Nc1ccc(S(=O)(=O)Nc2nccs2)cc1)c1ccc(F)c(F)c1,-0.204
14,CC(C)c1c(O)nc(SCCN2CCOCC2)[nH]c1=O,-0.557
15,CCc1ccc2oc(-c3ccc(N)cc3)nc2c1,-0.85
16,CC(CCc1ccccc1)NC(=O)C1CCN(C(=O)c2sccc2-n2cccc2)CC1 (centres undefined),-0.67
17,Cc1ccc(CN2C(=O)CCC2C(=O)NC(C)C)cc1 (centres undefined),0.893
18,CCN(CC)C(=O)CSc1nc(O)cc(=O)n1C,-0.0847
19,Cc1ccc(-n2c(SCC(=O)NNC(=S)Nc3ccccc3)nc3ccccc3c2=O)cc1,-0.543
20,O=C(CN1C(=O)CCC1=O)NCC12CC3CC(CC(C3)C1)C2,-0.297
21,COc1c(C(=O)Nc2c(C)n(C)n(-c3ccccc3)c2=O)ccc2ccccc12,-0.517
22,CN(Cc1ccccc1)C(=O)COc1cc(=O)n(C)c2ccccc12,0.391
23,Cc1cccc(Cn2c(N(C)Cc3ccccc3)nc3c2c(=O)[nH]c(=O)n3C)c1,-0.525

row,Structure (SMILES),z-score
1,Cc1csc(NC(=O)c2cccc(C)c2C)n1,-0.271
2,Cc1cc(C(=O)NCc2ccc(S(N)(=O)=O)cc2)c(C)o1,-0.0806
3,COc1ccc(-c2ccc(C#N)c(SCC(=O)NCCc3ccccc3)n2)cc1OC,-0.534
4,Brc1ccccc1-c1nnc2sc(-c3ccc4c(c3)OCCO4)nn12,active: -3.43
5,O=c1c2cnn(-c3ccc(F)cc3)c2ncn1Cc1cccnc1,-0.667
6,CCN(CC)C(=O)c1cc2sc3ccccc3c2s1,-0.696
7,Cc1ccc(C)c(N2CCN(C(=O)CC3Sc4ccccc4NC3=O)CC2)c1 (centres undefined),-0.141
8,CCOc1ccccc1-c1nc(-c2ccc(NC(=O)Cc3ccccc3OC)cc2)no1,0.714
9,O=C1NC(=O)C2(COC(c3ccccc3Cl)OC2)S1 (centres undefined),-0.116
10,COC(=O)c1ccc(C)c(NS(=O)(=O)c2ccc3c(c2)OCCO3)c1,0.875
11,CCOC(=O)CSc1nc(-c2ccccc2)nc2ccc(F)cc12,-0.404
12,COCCNC(=S)N1C2CCC1CC(NC(=O)NC13CC4CC(CC(C4)C1)C3)C2 (centres undefined),-0.144
13,COc1ccc(-c2oc(/N=C/N3CCCC3)c(C#N)c2-c2ccc(OC)cc2)cc1,-0.0141
14,O=C(CN1CCCCC1)Nc1ccc(S(=O)(=O)N2CCOCC2)cc1,-0.0871
15,O=C(NC1CCCCC1)NC1CCN(S(=O)(=O)Cc2ccccc2)CC1,-0.0506
16,COc1ccc(OC)c(S(=O)(=O)N2CCC(C(=O)NC(C)c3ccccc3)CC2)c1 (centres undefined),0.0492
17,Cc1ccc(C)c2[nH]c(=O)c(CN(Cc3ccc4c(c3)OCO4)Cc3nnnn3Cc3ccco3)cc12,0.566
18,O=C(NCc1ccco1)c1cnn2c1NC(c1ccccc1)CC2C(F)(F)F (centres undefined),-0.927
19,COC(=O)c1cc(OC)c(OC)cc1NC(=O)c1ccc(C)o1,-0.653
20,CC1CN(C(=O)Cc2ccc(-c3ccccc3)cc2)CC(C)O1 (centres undefined),0.784
21,Nc1nonc1-n1nncc1-c1ccccc1,0.523
22,Cc1ccc(C(=O)N/C(=C/c2ccc(Cl)cc2)C(=O)NCC2CCCO2)cc1 (centres undefined),-0.37
23,C=CCN(CC=C)CC(O)Cn1c2ccccc2c2ccccc21 (centres undefined),0.371
